According to PubChem BioAssay AID1508642 (National Center for Advancing Translational Sciences (NCATS), 2021):
Screen size: about 43,000 compounds; about 200 (0.47%) were called active. Another 12% or so got no clear call; they are omitted. Calls follow the shape of the dose curve; as a rule, active = well fitted cell-killing curve with a large enough effect; inconclusive = small, poorly fitted or top-dose-only effect, or effect the other way; inactive = flat fitted curve, though single readings scatter. The list shows a part of the results.

Assay: Cell viability qHTS assay in S16 Pmp22-F2sN cells; also: nearly all actives have a fitted effect of over 65% in size
Conditions: S16 Pmp22-F2sN Schwann cells (luciferase reporters placed in the Pmp22 gene) viability, CellTiter-Glo, 24 h; series mostly up to 57.5 µM; activity change, negative = cytotoxicity: at the top concentration
Procedure, shortened: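 Luminescence from CellTiter-Glo, read by CCD camera after a 15 min room-temperature incubation, served as the viability signal. Reporter Schwann cells (S16 Pmp22-F2sN) had been treated with pin-transferred compounds for 24 h at 37C.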
% is scaled to controls: 0 for no effect and ±100 for the full control effect.

Which “activity change, negative = cytotoxicity” value does the source give for Cc1ccccc1NC(=O)CSc1ncc2c(n1)-c1ccccc1N(C)S2(=O)=O here?
The value was inactive: 0.262%.

For Cc1cn2c(=O)cc(COC(=O)c3cccc(NC(=O)C(C)Oc4ccccc4)c3)nc2s1 (configuration not stated), which “activity change, negative = cytotoxicity” value is on record?
Its value is inactive: -5.47%.

With Cc1cc(C)c2c(n1)nn1c(C)c(CCC(=O)Nc3ccc(C)c(Cl)c3)c(C)nc21 as the compound, how does the “activity change, negative = cytotoxicity” value read?
The value was inactive: 2.35%.

For CCOc1ccccc1NC(=O)c1c(NC(=O)C(C)Oc2cccc(Cl)c2)sc2c1CCCCC2 (configuration not stated), which “activity change, negative = cytotoxicity” value is on record?
Its value is inactive: 10.7%.

Which “activity change, negative = cytotoxicity” value does the source give for CCSC1=NC2(CCN(C(=O)NC3CCCCC3)CC2)N=C1c1ccc(C)cc1 here?
The value was inactive: -16%.

For Cc1cc(S(=O)(=O)Nc2cc3c(cc2C)n(C)c(=O)c(=O)n3C)ccc1F, which “activity change, negative = cytotoxicity” value is on record?
The value was inactive: 6.44%.

For COc1ccc(Nc2cc(C(=O)NCCCN(C)Cc3ccccc3)c3ccccc3n2)cc1OC, which “activity change, negative = cytotoxicity” value is on record?
Its value is inactive: -29.9%.

For COc1ccc(-n2nc3cc(C)c(NC(=O)COc4cccc(C)c4)cc3n2)cc1, which “activity change, negative = cytotoxicity” value is on record?
The value was inactive: 10.8%.

For COc1cccc(CNC(=O)C(=O)NCC(c2cccs2)S(=O)(=O)c2cccs2)c1 (configuration not stated), which “activity change, negative = cytotoxicity” value is on record?
The value was inactive: 0.304%.

For COc1cccc(OCc2nc3ccccc3n2Cc2ccccc2)c1, which “activity change, negative = cytotoxicity” value is on record?
The value was inactive: -3.39%.

Which “activity change, negative = cytotoxicity” value does the source give for CCn1c(Oc2ccc(F)cc2F)nc2c1c(=O)n(C)c(=O)n2C here?
Its value is inactive: -15.4%.

Which “activity change, negative = cytotoxicity” value does the source give for CCOc1ccc(CC(=O)Nc2c(C(=O)c3ccc(Cl)cc3)oc3ccccc23)cc1OCC here?
The value was inactive: 5.3%.

For CC1=C(C(=O)Nc2ccc(Cl)cc2)C(c2cccs2)n2nc(SCc3cccc(Cl)c3)nc2N1 (configuration not stated), which “activity change, negative = cytotoxicity” value is on record?
Its value is inactive: 2.6%.

Which “activity change, negative = cytotoxicity” value does the source give for Cc1cccc(S(=O)(=O)c2cn(Cc3ccccc3)c3cc(N4CCC(C)CC4)c(F)cc3c2=O)c1 here?
Its value is inactive: 6.76%.

For CCC1=Nc2cc(C(=O)NCCc3ccccc3)ccc2Sc2ccc(Cl)cc21, which “activity change, negative = cytotoxicity” value is on record?
Its value is inactive: -8.13%.

For CCc1cc2c(cc3c(=O)n(CC(=O)NCc4cccc(Cl)c4)nc(CC)n32)s1, which “activity change, negative = cytotoxicity” value is on record?
The value was inactive: 3.06%.

With CCC(CC)C(=O)Nc1cccc(-c2nc3cccnc3s2)c1 as the compound, how does the “activity change, negative = cytotoxicity” value read?
The value was inactive: -7.35%.

Which “activity change, negative = cytotoxicity” value does the source give for COc1cccc(COC(=O)c2nn(-c3ccccc3)nc2N)c1 here?
The value was inactive: 8.37%.

For Cc1ccc(CNC(=O)C2CCN(c3nn4cc(-c5ccc(F)cc5)nc4s3)CC2)cc1, which “activity change, negative = cytotoxicity” value is on record?
Its value is inactive: -0.203%.

For COc1ccc(C(=O)NCC(c2cccnc2)N2CCc3ccccc3C2)cc1 (configuration not stated), which “activity change, negative = cytotoxicity” value is on record?
Its value is inactive: -2.91%.

With CCN(CC)c1ccc(NC(=O)CCS(=O)(=O)c2cccc3nsnc23)c(C)c1 as the compound, how does the “activity change, negative = cytotoxicity” value read?
Its value is inactive: 3.07%.

For CCOC(=O)c1[nH]c(C)c(CCC(=O)Nc2cc(Cl)ccc2C)c1C, which “activity change, negative = cytotoxicity” value is on record?
Its value is inactive: -3.02%.

For CNC(=O)C1CCC(Cn2c(=O)c3sccc3n(Cc3ccccc3)c2=O)CC1 (configuration not stated), which “activity change, negative = cytotoxicity” value is on record?
Its value is inactive: 4.93%.

For Cc1csc2nc(COC(=O)c3ccccc3NC(=O)c3ccccc3Cl)cc(=O)n12, which “activity change, negative = cytotoxicity” value is on record?
Its value is inactive: -20.3%.

For COc1ccccc1CCNC(=O)c1cc2c(=O)n3cccc(C)c3nc2n1C, which “activity change, negative = cytotoxicity” value is on record?
Its value is inactive: 22.9%.

With CCOc1ccc(-c2nc(Cn3c(=O)cc(-c4ccccc4)c4c(C)nn(C)c43)c(C)o2)cc1OC as the compound, how does the “activity change, negative = cytotoxicity” value read?
Its value is inactive: 11.8%.

With COCCn1c(C)cc(O)c(C(c2ccccc2)N2CCN(c3ccc(F)cc3)CC2)c1=O (configuration not stated) as the compound, how does the “activity change, negative = cytotoxicity” value read?
The value was inactive: 6.01%.

With Cc1ccc(N(C)C(=O)Cn2nc(Cc3ccncc3)c3ccccc3c2=O)cc1C as the compound, how does the “activity change, negative = cytotoxicity” value read?
The value was inactive: 3.41%.

Which “activity change, negative = cytotoxicity” value does the source give for COC(=O)c1c(SC)nc2ccccc2c1OCc1cccc(C)c1 here?
Its value is inactive: -5.64%.

With O=C(NCCc1ccc(Cl)cc1)c1ccc(CS(=O)(=O)Cc2ccc(F)cc2)o1 as the compound, how does the “activity change, negative = cytotoxicity” value read?
The value was inactive: -2.88%.

Which “activity change, negative = cytotoxicity” value does the source give for O=C(Nc1ccc(F)cc1)c1ccc(-n2cnc3cccnc32)cc1 here?
Its value is inactive: 1.36%.

For CCCC(=O)N(c1ccc2oc3c(c2c1)CCCC3)S(=O)(=O)c1ccc(CC)cc1, which “activity change, negative = cytotoxicity” value is on record?
Its value is inactive: -1.04%.

For O=c1c(S(=O)(=O)c2ccccc2)cn(Cc2ccc(F)cc2)c2cc(N3CCCC3)c(F)cc12, which “activity change, negative = cytotoxicity” value is on record?
The value was inactive: -0.697%.

Which “activity change, negative = cytotoxicity” value does the source give for Cc1ccc(OCc2cc(=O)n3c4c(sc3n2)CCCC4)c(C)c1 here?
Its value is inactive: 11.8%.

Which “activity change, negative = cytotoxicity” value does the source give for COc1cccc(CNC(=O)C2CCC(CNS(=O)(=O)c3cccs3)CC2)c1 (configuration not stated) here?
The value was inactive: 1.33%.

With COc1ccc(NCc2nc3ccccc3n2CCOc2ccccc2C)cc1 as the compound, how does the “activity change, negative = cytotoxicity” value read?
The value was inactive: -22.9%.

Which “activity change, negative = cytotoxicity” value does the source give for Cc1ccccc1NC(=O)c1ccc(NC(=O)N2CCSc3ncccc32)cc1 here?
Its value is inactive: 3.28%.

For COc1cccc(NC(=O)c2sc(-n3nc(C)c(Cc4ccccc4Cl)c3C)nc2C)c1, which “activity change, negative = cytotoxicity” value is on record?
Its value is inactive: 0.121%.

Which “activity change, negative = cytotoxicity” value does the source give for CC1CCN(S(=O)(=O)c2ccc3c(c2)N(CC(=O)NCc2ccccc2Cl)C(=O)CO3)CC1 here?
The value was inactive: 17.4%.

For COc1ccc(OC)c(-n2c(=O)[nH]c3cc(C(=O)NCCc4ccc(OC)c(OC)c4)ccc3c2=O)c1, which “activity change, negative = cytotoxicity” value is on record?
The value was inactive: 5.75%.

With Cc1ccccc1C(=O)Nc1cccc(-c2nc3cccnc3s2)c1 as the compound, how does the “activity change, negative = cytotoxicity” value read?
The value was inactive: 0.649%.

With COc1ccc(C(CNC(=O)COc2cc(C)c(Cl)c(C)c2)N2CCCCC2)cc1 (configuration not stated) as the compound, how does the “activity change, negative = cytotoxicity” value read?
Its value is inactive: -3.97%.

With CCCN(CCC)C(=O)c1c[nH]c2ccc(S(=O)(=O)N(C)c3ccc(Cl)cc3)cc2c1=O as the compound, how does the “activity change, negative = cytotoxicity” value read?
Its value is inactive: -16.3%.

With COc1ccc(Cn2ccc3nc(C)c(C(=O)Nc4ccc(OC)c(OC)c4)cc3c2=O)cc1 as the compound, how does the “activity change, negative = cytotoxicity” value read?
The value was inactive: 0.564%.

For COc1cccc(N2CCN(C(=O)CCn3nc(C)c(S(=O)(=O)N4CCCC4)c3C)CC2)c1, which “activity change, negative = cytotoxicity” value is on record?
Its value is inactive: 1.09%.

With O=C(CSc1nc(=O)n(Cc2ccncc2)c2c1CCC2)Nc1ccccc1 as the compound, how does the “activity change, negative = cytotoxicity” value read?
The value was inactive: 5.35%.

With CCOc1ccccc1N(C)C(=O)c1sc2nc3n(c(=O)c2c1C)CCCC3 as the compound, how does the “activity change, negative = cytotoxicity” value read?
Its value is inactive: -2.08%.
